This is one part of the list.
Tests used:
HSkMC = human skeletal muscle cells; assay: cytotoxicity call (relative viability < 0.9); settings: 10 µM
HepG2 = assay: cytotoxicity call (relative viability < 0.9); settings: 10 µM
S. aureus RN4220 = assay: growth inhibition call (relative growth <= 0.2); settings: 50 µM

In the case of `NCC[C@@H]1CC[C@H](NC(=O)c2ccccc2F)[C@@H](CO)O1`, the cytotoxicity call (HSkMC) is reported as “inactive”, the cytotoxicity call (HepG2) is reported as “inactive” and the growth inhibition call (S. aureus RN4220) is reported as “inactive”.
For `C[C@@H]1O[C@@H](O[C@@H]2[C@@H](O)[C@H](C)O[C@@H](OC[C@H]3O[C@@H](Oc4c(-c5ccc(O)cc5)oc5cc(O)cc(O)c5c4=O)[C@H](O)[C@@H](O)[C@H]3O)[C@@H]2O)[C@H](O)[C@H](O)[C@H]1O`, the cytotoxicity call (HSkMC) was “inactive”, the cytotoxicity call (HepG2) was “inactive” and the growth inhibition call (S. aureus RN4220) was “inactive”.
For `COc1ccc(CN(C)C[C@H]2OCCCC[C@@H](C)Oc3ccc(NC(=O)NC(C)C)cc3C(=O)N([C@@H](C)CO)C[C@H]2C)cc1`, the cytotoxicity call (HSkMC) was “inactive”, the cytotoxicity call (HepG2) was “inactive” and the growth inhibition call (S. aureus RN4220) was “inactive”.
`C[C@@H]1CN([C@@H](C)CO)C(=O)Cc2cc(NS(=O)(=O)c3cccs3)ccc2O[C@H]1CN(C)Cc1ccc(Oc2ccccc2)cc1` was tested, and the cytotoxicity call (HSkMC) was “inactive”, the cytotoxicity call (HepG2) was “inactive” and the growth inhibition call (S. aureus RN4220) was “inactive”.
For `C[C@@H](CN1CCCCC1)C(=O)NN`, the cytotoxicity call (HSkMC) was “inactive”, the cytotoxicity call (HepG2) was “inactive” and the growth inhibition call (S. aureus RN4220) was “inactive”.
For `C[C@@H](O)CN(CCN(C[C@@H](C)O)C[C@@H](C)O)C[C@@H](C)O`, the cytotoxicity call (HSkMC) was “inactive”, the cytotoxicity call (HepG2) was “inactive” and the growth inhibition call (S. aureus RN4220) was “inactive”.
For `C[C@H]1CCCCO[C@H](CN(C)S(=O)(=O)c2ccccc2)[C@@H](C)CN([C@@H](C)CO)C(=O)c2cc(NC(=O)c3ccccc3)ccc2O1`, the cytotoxicity call (HSkMC) was “inactive”, the cytotoxicity call (HepG2) was “inactive” and the growth inhibition call (S. aureus RN4220) was “inactive”.
For `CSc1cc(-c2ccc(Cl)cc2)nc(-c2cccs2)c1`, the cytotoxicity call (HSkMC) was “inactive”, the cytotoxicity call (HepG2) was “inactive” and the growth inhibition call (S. aureus RN4220) was “inactive”.
With `Cc1ccc(S(=O)(=O)N(C)C[C@@H]2Oc3c(NC(=O)c4ccncc4)cccc3C(=O)N([C@H](C)CO)C[C@@H]2C)cc1` the cytotoxicity call (HSkMC) was “inactive”, the cytotoxicity call (HepG2) was “inactive” and the growth inhibition call (S. aureus RN4220) was “inactive”.
In the case of `CO[C@@H]1CN(C)C(=O)c2cc(NS(=O)(=O)c3cn(C)cn3)ccc2OC[C@H](C)N(CC2CC2)C[C@H]1C`, the cytotoxicity call (HSkMC) is reported as “inactive”, the cytotoxicity call (HepG2) is reported as “inactive” and the growth inhibition call (S. aureus RN4220) is reported as “inactive”.
For `O=C1CNC(=S)N1CCc1ccccc1`, the cytotoxicity call (HSkMC) was “inactive”, the cytotoxicity call (HepG2) was “inactive” and the growth inhibition call (S. aureus RN4220) was “inactive”.
With `C[C@H]1CN([C@@H](C)CO)C(=O)Cc2cc(NC(=O)Nc3ccc4c(c3)OCO4)ccc2O[C@@H]1CN(C)Cc1ccc(Cl)c(Cl)c1` the cytotoxicity call (HSkMC) was “inactive”, the cytotoxicity call (HepG2) was “inactive” and the growth inhibition call (S. aureus RN4220) was “inactive”.
For `C[C@@H]1CCCCO[C@@H](CN(C)C(=O)NC2CCCCC2)[C@@H](C)CN([C@H](C)CO)C(=O)c2cc(NS(=O)(=O)c3ccc(F)cc3)ccc2O1`, the cytotoxicity call (HSkMC) was “inactive”, the cytotoxicity call (HepG2) was “inactive” and the growth inhibition call (S. aureus RN4220) was “inactive”.
`C[C@H](CO)N1C[C@H](C)[C@@H](CN(C)C(=O)C2CCOCC2)Oc2cc(C3=CCCC3)ccc2S1(=O)=O` was tested, and the cytotoxicity call (HSkMC) was “inactive”, the cytotoxicity call (HepG2) was “inactive” and the growth inhibition call (S. aureus RN4220) was “inactive”.
`C[C@@H]1CCCCO[C@@H](CN(C)Cc2ccc(C(F)(F)F)cc2)[C@H](C)CN([C@@H](C)CO)C(=O)c2cc(NS(=O)(=O)c3ccc(Cl)cc3)ccc2O1` was tested, and the cytotoxicity call (HSkMC) was “active”, the cytotoxicity call (HepG2) was “active” and the growth inhibition call (S. aureus RN4220) was “inactive”.
For `COc1ccc(NC(=O)N(C)C[C@H]2OCCCC[C@@H](C)Oc3ccc(NC(=O)Nc4c(C)noc4C)cc3C(=O)N([C@H](C)CO)C[C@@H]2C)cc1`, the cytotoxicity call (HSkMC) was “inactive”, the cytotoxicity call (HepG2) was “inactive” and the growth inhibition call (S. aureus RN4220) was “inactive”.
`C[C@H](CO)N1C[C@H](C)[C@@H](CN(C)Cc2ccc(-c3ccccc3)cc2)Oc2c(NC(=O)CCC(F)(F)F)cccc2C1=O` was tested, and the cytotoxicity call (HSkMC) was “inactive”, the cytotoxicity call (HepG2) was “inactive” and the growth inhibition call (S. aureus RN4220) was “inactive”.
With `C=C1CC23CC1(O)CCC2C12C=CC(O)C(C)(C(=O)O1)C2C3C(=O)O` (centres undefined) the cytotoxicity call (HSkMC) was “inactive”, the cytotoxicity call (HepG2) was “inactive” and the growth inhibition call (S. aureus RN4220) was “inactive”.
For `N[C@@H](CSCC(=O)O)C(=O)O`, the cytotoxicity call (HSkMC) was “inactive”, the cytotoxicity call (HepG2) was “inactive” and the growth inhibition call (S. aureus RN4220) was “inactive”.
With `C[C@H]1CN([C@@H](C)CO)C(=O)c2cc(NC(=O)c3ccncc3)ccc2O[C@H]1CN(C)S(=O)(=O)c1ccccc1` the cytotoxicity call (HSkMC) was “inactive”, the cytotoxicity call (HepG2) was “inactive” and the growth inhibition call (S. aureus RN4220) was “inactive”.
With `CCCNC(=O)N(C)C[C@H]1Oc2ncc(-c3ccc(C(=O)N(C)C)cc3)cc2C(=O)N([C@H](C)CO)C[C@H]1C` the cytotoxicity call (HSkMC) was “inactive”, the cytotoxicity call (HepG2) was “inactive” and the growth inhibition call (S. aureus RN4220) was “inactive”.
`Cc1ccc(S(=O)(=O)Nc2cccc3c2O[C@H](CN(C)C(=O)Nc2cccc4ccccc24)[C@@H](C)CN([C@@H](C)CO)C3=O)cc1` was tested, and the cytotoxicity call (HSkMC) was “active”, the cytotoxicity call (HepG2) was “active” and the growth inhibition call (S. aureus RN4220) was “inactive”.
With `C[C@H](CO)N1C[C@H](C)[C@H](CN(C)C(=O)Nc2ccc3c(c2)OCO3)Oc2cc(C#Cc3ccncc3)ccc2S1(=O)=O` the cytotoxicity call (HSkMC) was “inactive”, the cytotoxicity call (HepG2) was “inactive” and the growth inhibition call (S. aureus RN4220) was “inactive”.
In the case of `N[C@@H]1CN(c2c(F)cc3c(=O)c(C(=O)O)cn([C@@H]4C[C@@H]4F)c3c2Cl)CC12CC2`, the cytotoxicity call (HSkMC) is reported as “inactive”, the cytotoxicity call (HepG2) is reported as “inactive” and the growth inhibition call (S. aureus RN4220) is reported as “inactive”.
`CC(C)(C)OC(=O)N[C@H]1CCCCC/C=C\[C@@H]2C[C@@]2(C(=O)NS(=O)(=O)C2CC2)NC(=O)[C@@H]2C[C@@H](OC(=O)N3Cc4cccc(F)c4C3)CN2C1=O` was tested, and the cytotoxicity call (HSkMC) was “inactive”, the cytotoxicity call (HepG2) was “inactive” and the growth inhibition call (S. aureus RN4220) was “inactive”.
With `O=C(N/N=C/[C@H](O)[C@@H](O)[C@H](O[C@@H]1O[C@H](CO)[C@H](O)[C@H](O)[C@H]1O)[C@H](O)CO)c1ccccn1` the cytotoxicity call (HSkMC) was “inactive”, the cytotoxicity call (HepG2) was “inactive” and the growth inhibition call (S. aureus RN4220) was “inactive”.
`C[C@H](CO)N1C[C@H](C)[C@H](CN(C)C(=O)C2CCOCC2)Oc2cc(C3=CCCC3)ccc2S1(=O)=O` was tested, and the cytotoxicity call (HSkMC) was “inactive”, the cytotoxicity call (HepG2) was “inactive” and the growth inhibition call (S. aureus RN4220) was “inactive”.
In the case of `Cc1cc(C(=O)Nc2cccc3c2O[C@@H](CN(C)Cc2ccccc2)[C@@H](C)CN([C@H](C)CO)C3=O)n(C)n1`, the cytotoxicity call (HSkMC) is reported as “inactive”, the cytotoxicity call (HepG2) is reported as “inactive” and the growth inhibition call (S. aureus RN4220) is reported as “inactive”.
